Assay results reported in PubChem BioAssay AID1476 (National Center for Advancing Translational Sciences (NCATS), 2009).
Several values for one entry are separate records, joined by “and”; a condition that tells them apart may be missing. Equal entries are not always repeated. In all, about 200,000 compounds went through this assay and about 4,500 (2.2%) were called active. Inconclusive means that the source gave no clear call. Such entries were picked first, then a sample of the others. Calls come from the whole dose curve; as a rule, active = well fitted inhibition curve with a large enough effect; inconclusive = small, poorly fitted or top-dose-only effect, or effect the other way; inactive = flat fitted curve, though single readings scatter. Potencies of inconclusive entries are doubtful fits and often do not repeat.

Biological target: Cruzipain (Trypanosoma cruzi) (UniProt P25779)
Assay: qHTS Assay for Promiscuous and Specific Inhibitors of Cruzain (without detergent); note: nearly all actives have a fitted effect of over 40% in size;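 for max response, negative = inhibition: plate controls were enzyme without inhibitor for no effect and buffer without enzyme for full effect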
Details: purified cruzain, Z-FR-AMC fluorescence, no detergent
Summary of the method: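 Detergent-free condition (0.00005% Triton X-100) in acetate buffer pH 5.5 with DTT. 1.5 nM enzyme and compound were pre-mixed 15 min, then 2 uM Z-FR-AMC substrate added; reaction progress from fluorescence change between first and third reads (60 s).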
Potency is the fitted concentration of half-maximal effect; tags give direction and shape of the fitted curve.

UniProt P25779, sequence (P25779 whole entry, looked up): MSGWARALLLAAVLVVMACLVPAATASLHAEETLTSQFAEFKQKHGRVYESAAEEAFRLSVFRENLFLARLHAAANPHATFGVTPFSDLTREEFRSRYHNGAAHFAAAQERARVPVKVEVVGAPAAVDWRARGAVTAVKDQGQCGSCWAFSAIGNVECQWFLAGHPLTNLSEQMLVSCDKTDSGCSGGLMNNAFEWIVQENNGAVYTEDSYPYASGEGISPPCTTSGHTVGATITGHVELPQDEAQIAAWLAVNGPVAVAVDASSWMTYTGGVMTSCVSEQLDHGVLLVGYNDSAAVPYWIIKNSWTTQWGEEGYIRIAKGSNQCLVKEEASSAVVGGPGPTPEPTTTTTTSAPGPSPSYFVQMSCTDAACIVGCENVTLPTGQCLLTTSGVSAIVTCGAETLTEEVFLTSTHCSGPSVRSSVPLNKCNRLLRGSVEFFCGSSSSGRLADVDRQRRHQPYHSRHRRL

| Structure (SMILES) | max response, negative = inhibition | Potency |
| --- | --- | --- |
| Cn1c(=O)n(C)c2cc(NS(=O)(=O)c3ccc(F)cc3)ccc21 | inactive: -10.1% |  |
| COc1cccc(C(=O)Nc2ccc3nc(SCC(=O)N4CCOCC4)sc3c2)c1 |  | inconclusive: 39.8 µM [activator, single point] |
| O=C(Nc1ccc(N2CCCC2)c(Cl)c1)c1cccc(-c2cc3ccccc3oc2=O)c1 |  | active: 3.98 µM |
| CC1(C)O[C@H]2[C@@H](O1)[C@@H](On1nnc3ccc(Cl)cc31)O[C@@H]2[C@@H]1COC(C)(C)O1 | inactive: 1.25% |  |
| COc1ccc(NC(=O)CSc2oc(-c3cccs3)nc2S(=O)(=O)c2ccc(C)cc2)c(OC)c1 | inactive: -21.9% |  |
| Cn1nc(-c2ccc(Cl)cc2)c2cc(C(=O)N3CCCC3)sc21 |  | inconclusive: 31.6 µM [activator, single point] |
| Cc1ccccc1CS(=O)(=O)c1nnc([C@H](CC(C)C)NC(=O)OC(C)(C)C)o1 |  | active: 25.1 µM |
| Cc1[nH]c2ccccc2c1C(=O)CSC(=S)N(C)C1CCCCC1 |  | inconclusive: 31.6 µM [inhibitor, single point] |
| Brc1cc2[nH]cnc2c2ccccc12 | inactive: -16.9% |  |
| Cc1ccccc1/C=N/Nc1ccnc2cc(Cl)ccc12 |  | inconclusive: 25.1 µM [inhibitor, partial curve, poor fit] |
| O=C(c1cccn1-c1nnc(N2CCCC2)s1)N1CCN(c2ccccc2)CC1 | inactive: -6.34% |  |
| CC(C)(C)NCC(O)c1ccccc1Cl (stereo not given) | inactive: 7.9% and inactive: -6.84% |  |
| COc1cc(-c2nc(Cn3nnc(C(=O)Nc4ccccc4)c3C)c(C)o2)cc(OC)c1OC |  | inconclusive: 25.1 µM [activator, partial curve] |
| CCOC(=O)c1sc(NC(=O)c2cc(-c3ccccc3)nc3ccccc23)c(C#N)c1C |  | inconclusive: 7.94 µM [inhibitor, full curve] |
| Cc1ccc(CNC(=O)c2cccn2-c2nnc(N3CCCCC3)s2)cc1 | inactive: -5% |  |
| O=C(NC1CC(=O)N(c2cccc(F)c2)C1)C1CCCC1 (stereo not given) | inactive: -15.4% |  |
| C=CCN1CC(c2nc3ccccc3n2Cc2cccc3ccccc23)CC1=O (stereo not given) |  | inconclusive: 31.6 µM [activator, single point] |
| CCOC(=O)/C(=C\c1cccnc1)C(=O)c1cc(C(C)=O)c(Nc2ccccc2)s1 |  | inconclusive: 25.1 µM [activator, partial curve] |
| COc1cccc(C(=O)Nc2ccccc2C(=O)OCc2cc(=O)n3nc(C4CC4)sc3n2)c1 | inactive: 15.3% |  |
| COc1cccc(-n2c(=O)c3c4c(sc3n(Cc3ccc(C)cc3)c2=O)CCCC4)c1 | inactive: -3.39% |  |
| COc1ccc(-c2nc(CSCC(=O)N3CCN(c4cccc(C)c4C)CC3)c(C)o2)cc1OC |  | inconclusive: 20 µM [activator, partial curve] |
| CCOC(=O)c1ccc(NS(=O)(=O)c2ccc3c(c2)n(C)c(=O)n3C)cc1 |  | inconclusive: 39.8 µM [activator, single point] |

| Structure (SMILES) | max response, negative = inhibition | Potency |
| --- | --- | --- |
| Cc1occc1-c1nnc(SCC(=O)Nc2nc3ccccc3s2)o1 |  | inconclusive: 39.8 µM [inhibitor, single point] |
| COc1cccc(CN(C(=O)c2oc3cc(C)ccc3c2C)C2CCS(=O)(=O)C2)c1 (stereo not given) |  | inconclusive: 39.8 µM [activator, single point] |
| Cc1ccc(C(=O)C(NC(=O)c2ccco2)Nc2sc3c(c2C(N)=O)CCCC3)cc1 (stereo not given) |  | inconclusive: 12.6 µM [inhibitor, partial curve] |
| CO[C@H]1C=CO[C@]2(C)Oc3c(C)c(O)c4c(O)c(c5c(c4c3C2=O)NC2(CCN(CC(C)C)CC2)N=5)=NC(=O)C(C)=CC=C[C@@H](C)[C@@H](O)[C@@H](C)[C@@H](O)[C@@H](C)[C@@H](OC(C)=O)[C@@H]1C | inactive: 13% |  |
| CC1CCC(NC(=O)c2ccc3c(c2)N(Cc2cccc(Cl)c2)C(=O)c2ccccc2S3(=O)=O)CC1 (stereo not given) |  | inconclusive: 31.6 µM [inhibitor, single point] |
| N#CNC(N)=Nc1ccc(Cl)cc1 | inactive: -7.23% |  |
| CC(=O)N1CCN(c2nc(CC(C)C)c3c(c2C#N)CCC3)CC1 |  | inconclusive: 25.1 µM [activator, single point] |
| NC(=O)CC[C@@H]1NC(=O)[C@H](CO)NC(=O)c2cc([N+](=O)[O-])cc(I)c2NCCC[C@@H](C(N)=O)NC(=O)[C@H](Cc2ccc(O)cc2)NC1=O |  | inconclusive: 31.6 µM [activator, single point] |
| COc1ccc(Br)cc1S(=O)(=O)N(CC(=O)N1CCOCC1)c1ccccc1 |  | inconclusive: 39.8 µM [activator, single point] |
| Cc1cccc(-n2c(C)cc(/C=C3\C(=N)N4N=C(CC(C)C)SC4=NC3=O)c2C)c1 |  | inconclusive: 39.8 µM [inhibitor, single point] |
| COc1ccc(C(=O)N2CCN(Cc3cc(=O)n4nc(-c5ccccc5C)sc4n3)CC2)cc1OC | inactive: -2.23% |  |
| CC(=O)Nc1ccc(-c2cc(C(=O)O)c3c(-c4ccccc4)[nH]nc3n2)cc1 | inactive: -18.1% |  |
| Cc1ccc(S(=O)(=O)N2CCCCC2)cc1NC(=O)COC(=O)CNC(=O)c1cc(Cl)cc([N+](=O)[O-])c1 |  | active: 20 µM |
| Cc1ccc(-c2ccc(C(=O)NCc3ccccc3)o2)c2ccccc12 |  | inconclusive: 31.6 µM [inhibitor, single point] |
| CCCC1=Nc2cc(C(=O)NC3CCCC3)ccc2Sc2ccc(C)cc21 |  | inconclusive: 12.6 µM [inhibitor, partial curve] |
| COc1cc(CNC(=O)CCCC/C=C\C(C)C)ccc1O |  | inconclusive: 39.8 µM [activator, single point] |
| O=c1oc2ccccc2cc1-c1nc2c(s1)CCc1ccccc1-2 |  | inconclusive: 20 µM [inhibitor, partial curve] |
| NC(=O)c1sc2nc3c(c(-c4ccc(Cl)cc4)c2c1N)CCCC3 |  | inconclusive: 39.8 µM [activator, single point] |
| C=CCSc1nc2ccccc2c(=O)[nH]1 |  | inconclusive: 0.0063 µM [inhibitor, full curve, poor fit] |
| N#C/C(=C(/O)CSc1nnc(Cc2cccs2)n1C1CCCCC1)c1nc2ccccc2[nH]1 | inactive: -24.7% |  |
| Cc1ccc(NC(=O)Cn2c(=O)n(Cc3ccc(C(=O)NCc4ccc5c(c4)OCO5)cc3)c(=O)c3ccccc32)cc1 |  | inconclusive: 6.31 µM [inhibitor, single point] |
| CC(C)CN(C[C@@H](O)[C@H](Cc1ccccc1)NC(=O)O[C@H]1CCOC1)S(=O)(=O)c1ccc(N)cc1 |  | inconclusive: 31.6 µM [inhibitor, single point] |

| Structure (SMILES) | max response, negative = inhibition | Potency |
| --- | --- | --- |
| NC(=S)N=Nc1c(O)[nH]c2ccccc12 |  | active: 12.6 µM |
| CCN(CC)c1nc(C#N)nc(N(CC)CC)n1 |  | active: 15.8 µM |
| COc1ccc(CNC(=O)C2=CC(c3cccc(OC)c3)=NS(=O)(=O)N2C)cc1 |  | inconclusive: 31.6 µM [activator, single point] |
| Cc1nnc(SCC(=O)Nc2nc(C(C)(C)C)cs2)s1 |  | inconclusive: 25.1 µM [inhibitor, single point] |
| COc1ccc(NC(=O)Cn2nc(C(F)(F)F)c3c2CCCC3)cc1OC |  | inconclusive: 39.8 µM [activator, single point] |
| O=C(C(=O)N1CCc2ccccc2C1)c1cn(CC(=O)N2CCCC2)c2ccccc12 |  | inconclusive: 39.8 µM [activator, single point] |
| Cc1cccc(N2CCN(C(=O)c3ccc4c(Cl)c5c(nc4c3)CCCC5)CC2)c1C | inactive: 11.6% |  |
| Cc1cccc(-c2cccc(-c3cc(=O)oc4cc5c(cc34)OCO5)c2)c1 |  | active: 35.5 µM |
| CCCOc1ccc(OC(=O)c2cn(-c3ccc(OC)cc3)c(=O)c3ccccc23)cc1 | inactive: -11.7% |  |
| COc1ccc(C(=O)NC(=S)Nc2ccccc2N2CCCCC2)cc1[N+](=O)[O-] |  | inconclusive: 20 µM [inhibitor, single point] |
| COc1cc(Cn2c(-c3nonc3N)nc3ccccc32)ccc1C |  | inconclusive: 31.6 µM [inhibitor, single point] |
| COCCCn1c2nc3ccccc3nc2c2c(=O)n(Cc3ccc(Cl)cc3)c(C)nc21 |  | inconclusive: 39.8 µM [activator, single point] |
| COc1ccc(OC)c(S(=O)(=O)N2CCC(C(=O)N3CCc4ccccc4C3)CC2)c1 |  | inconclusive: 39.8 µM [activator, single point] |
| COC(=O)c1cn(CC(=O)NC2CCCCCC2)c2ccccc12 |  | inconclusive: 31.6 µM [inhibitor, single point] |
| Cc1nc(SCC(=O)NCCc2ccc(Cl)cc2)nc(C)c1C | inactive: -4.19% |  |
| CC(C)OC(=O)CC(=O)CSc1nc(-c2ccc(F)cc2)cc(-c2ccccc2)c1C#N | inactive: -5.71% |  |
| Cc1ccccc1OCC(=O)Nc1ccc2nc(SCC(N)=O)sc2c1 | inactive: 19.2% |  |
| CC(C)(C)c1ccc(C(=O)Nc2cccc3c(=O)[nH][nH]c(=O)c23)cc1 | inactive: -17.6% |  |
| Cc1nc2cc(-c3cccc(Cl)c3)nn2c(N2CCN(C(=O)c3ccco3)CC2)c1C |  | inconclusive: 39.8 µM [activator, single point] |
| Cc1ccc(-c2nnn(CC(=O)Nc3cccc4c3CCCC4)n2)o1 |  | inconclusive: 31.6 µM [inhibitor, single point] |
| O=C(Cn1ncn2c(cc3ccccc32)c1=O)NCc1ccco1 | inactive: 2.82% |  |
